The values below come from ChEMBL document CHEMBL4888484, “Replenishing the malaria drug discovery pipeline: Screening and hit evaluation of the MMV Hit Generation Library 1 (HGL1) against asexual blood stage Plasmodium falciparum ,using a nano luciferase reporter read-out” (2022).

Molecules are shown by their SMILES. Out of some 150,000 compounds screened, about 540 (0.36%) showed an effect of 50% or more. The list shows a part of the results.

This test has as its system Plasmodium falciparum. Nature of the test: Primary screen in NF54 nanoGlo assay, in single point, at 2uM, 72h; a lower Z score goes with more inhibition. The format is functional, Erythrocyte. The conditions noted are these: timepoint 72 hour.
In the case of `COCc1cn([C@@H]2CC[C@H]3CCOc4ccccc4C(=O)N4CCN(C5CCOCC5)C[C@H]4C(=O)NC[C@H]2O3)nn1`, the “% Inhibition” value is recorded as 7% and the Z score is reported as -0.91.

Turning to `COc1ccc(-c2nc(CN3[C@@H]4CC[C@H]3CNC(=O)C4)c(C)o2)c2ccccc12`, the “% Inhibition” value is -2% and the Z score is recorded as 0.3.

As for `CCN1C(=O)C2C3CC4C(OC1(C)C42)C3O` (configuration not stated), the “% Inhibition” value is recorded as -10% and the Z score is 1.55.

`CC1CCCC(Nc2ccc3nnnn3n2)C1C` (configuration not stated): the “% Inhibition” value is on record as -4% and the Z score is 0.71.

Consider `Cc1ncsc1CNC(=O)N[C@H]1C[C@@H](OC(C)C)C1`, for which the “% Inhibition” value is recorded as -10% and the Z score was determined as 1.93.

Consider `O=C1C[C@H](c2n[nH]c(=O)n2CCc2ccc(F)cc2)CN1Cc1ccccc1`, for which the “% Inhibition” value is listed as -10% and the Z score was determined as 1.45.

`CN(C)CCN1CC2(CCC1=O)CCN(C(=O)Cc1ccc(O)cc1)CC2`: the “% Inhibition” value is given as -4% and the Z score turned out to be 0.53.

Regarding `CC(C)CN(C)[C@@H](C)C(=O)NCc1cccs1`, the “% Inhibition” value is -6% and the Z score is reported as 0.78.

Regarding `CCc1ccccc1-c1noc(-c2coc(S(=O)(=O)N(C)C)c2)n1`, the “% Inhibition” value was -7% and the Z score turned out to be 1.29.

For the compound `COCCNC(=O)CCc1c(-c2cccc(OC)c2)nc2ccc(-c3ccccc3)cn12`, the “% Inhibition” value is reported as -11% and the Z score is reported as 0.98.

Turning to `O=C1CCCN1CCCN(Cc1cc2cc3c(cc2nc1N1CCC(O)CC1)OCO3)C(=O)CC1CCCC1`, the “% Inhibition” value was -4% and the Z score is given as 0.56.

With `CS(=O)(=O)N(CC(=O)Nc1ccc(S(=O)(=O)Nc2ccc(Cl)cc2)cc1)c1cccc(C(F)(F)F)c1`, the “% Inhibition” value worked out at 33% and the Z score was -3.78.

In the case of `Cc1noc(C)c1CN1CCc2c(cccc2N2CCOC2=O)C1`, the “% Inhibition” value is 1% and the Z score is -0.06.

For `Nc1nc(NCc2ccc(F)c(Cl)c2)cc(-n2cccn2)n1`, the “% Inhibition” value is -3% and the Z score was found to be 0.48.

With `CCOC(=O)N1CCN(C(=O)C[C@]2(c3cccc(C(F)(F)F)c3)CC(=O)N(C3CC3)C2=O)CC1`, the “% Inhibition” value was determined as 18% and the Z score is on record as -2.36.

On to `CN1N=C(C(=O)NCC[C@H]2CCCO2)CCC1=O`, for which the “% Inhibition” value is -1% and the Z score stood at 0.14.

For the compound `Cn1cc(C#N)cc1C(=O)N[C@H]1CCOC[C@@H]1Oc1ccccn1`, the “% Inhibition” value came out at 3% and the Z score was -0.51.

Take `CCN(C1CCN(Cc2cn(C)nc2-c2ccncc2)CC1)S(C)(=O)=O`: the “% Inhibition” value is on record as -8% and the Z score was 0.8.

`CCOC(C)(C)CS(=O)(=O)N(C)[C@H]1CCCc2nc(C)sc21`: the “% Inhibition” value is -9% and the Z score was found to be 1.1.

`COc1ccc(C(=O)N2CCCN(C[C@H]3CN(C(=O)Nc4ccccc4)CCO3)CC2)cc1OC`: the “% Inhibition” value is on record as 0% and the Z score is given as -0.03.

As to `Cc1cc(C)cc(C2(CNC(=O)N3C[C@@H]4CC[C@H](C3)C(=O)N4)CCCC2)c1`, the “% Inhibition” value is given as -11% and the Z score is given as 1.28.

Regarding `COc1ccccc1-c1nnc([C@H]2CCN(Cc3ccc(C(F)(F)F)cc3)C2)o1`, the “% Inhibition” value is -1% and the Z score was found to be 0.19.

In the case of `Cc1nc(CN(C)C(=O)NCc2ccc3c(c2)OCO3)no1`, the “% Inhibition” value is listed as -2% and the Z score is on record as 0.2.

Consider `CN(Cc1cc(F)c(F)c(F)c1)c1ncccn1`, for which the “% Inhibition” value is given as -10% and the Z score was 1.48.

With `CN(Cc1cccn1Cc1cccs1)C[C@H]1CCOC1`, the “% Inhibition” value is -7% and the Z score came out at 0.96.

As to `O=C1NCCOCCCN(C(=O)COc2ccccc2)[C@H]2CCCC[C@@H]12`, the “% Inhibition” value is given as -6% and the Z score is on record as 0.8.

On to `Cc1noc(C)c1CN1C(=O)[C@@H]2CC[C@H]1CN(c1ccc(Cl)cn1)C2`, for which the “% Inhibition” value is listed as -9% and the Z score came out at 1.84.

In the case of `CC(C)C(=O)N1C[C@@H](Oc2ccccc2)C[C@@H]1C(=O)N1CCOCC1`, the “% Inhibition” value is reported as -13% and the Z score is given as 2.55.

Consider `OCCC1(CNCc2ccc(F)c(Cl)c2)CCC1`, for which the “% Inhibition” value is -17% and the Z score turned out to be 1.93.

As to `Cc1ncsc1CCCNC(=O)N1C[C@H]2CCC[C@@H](C1)N(C)C2`, the “% Inhibition” value is -10% and the Z score is given as 1.55.

As for `COC[C@H](C)NC(=O)N(Cc1ccc(C)s1)C1CCCC1`, the “% Inhibition” value was -6% and the Z score is on record as 0.81.

Turning to `O=C1[C@@H]2CC[C@@H](C2)N1CCS(=O)(=O)c1ccccc1`, the “% Inhibition” value was 14% and the Z score is recorded as -1.83.

`C[C@H]1CC2(CCCCC2)N(C(=O)c2ccccc2)Cc2ccccc21`: the “% Inhibition” value is recorded as -12% and the Z score is recorded as 1.52.

On to `O=C([C@H]1CCc2[nH]cnc2C1)N1CCN(Cc2ccc3c(c2)OCO3)CC1`, for which the “% Inhibition” value is on record as -3% and the Z score stood at 0.56.

Turning to `O=C1C[C@H](c2cccc3[nH]ccc23)c2c(n[nH]c2C2CCC2)N1`, the “% Inhibition” value is listed as -16% and the Z score is 2.5.

Take `CCCO[C@H]1CCCN(C[C@H]2CC[C@H](O)CC2)C1`: the “% Inhibition” value is -13% and the Z score was 1.51.

Consider `Cc1nc(C)c(C(=O)N(Cc2ccsc2)CC(C)C)o1`, for which the “% Inhibition” value is listed as -13% and the Z score came out at 1.28.

In the case of `COc1ccc(S(=O)(=O)N2CC(=O)N(C3CC3)[C@](C)(C(=O)NCc3ccc(C)cc3)C2)cc1`, the “% Inhibition” value is on record as -7% and the Z score worked out at 0.85.

As to `O=C(O)C[C@H]1CCCN1C(=O)c1cccc2c1CCC2`, the “% Inhibition” value came to 3% and the Z score was -0.54.

For the compound `O=C(N[C@H](CO)CC1CCCC1)c1c[nH]c(C(F)(F)F)c1`, the “% Inhibition” value is -4% and the Z score was 0.81.

With `O=C(O)c1cccc(C(=O)N(Cc2ccc3c(c2)OCO3)C2CCCCC2)n1`, the “% Inhibition” value was -2% and the Z score was determined as 0.28.

The % Inhibition is the change of the read-out against control, counted positive when it falls.
